# Measurements taken from PubChem BioAssay AID1460 (National Center for Advancing Translational Sciences (NCATS), 2008).
# Several values for one entry are separate records, joined by “and”; a condition that tells them apart may be missing. Equal values may be shown once. Out of some 270,000 compounds screened, about 5,800 (2.1%) were called active. This list was built around the results that the source calls inconclusive (neither active nor inactive); the mix of calls is not that of the screen. Calls come from the whole dose curve; as a rule, active = well fitted inhibition curve with a large enough effect; inconclusive = small, poorly fitted or top-dose-only effect; inactive = flat fitted curve, though single readings scatter. Potencies beside an inconclusive call are fits to weak or partial responses and may not hold up.
# Biological target: Microtubule-associated protein tau (Homo sapiens) (UniProt P10636)
# Assay: qHTS for Inhibitors of Tau Fibril Formation, Thioflavin T Binding; note: nearly all actives have a fitted effect of over 55% in size
# Settings: recombinant tau K18 P301L (four-repeat tau fragment), heparin-induced fibrillization, ThT fluorescence; series mostly up to 57.4 µM; activity, negative = inhibition: at the top concentration
# Procedure, shortened: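 Tau K18 P301L fragment (15 uM unlabeled plus 0.24 uM Alexa 594-labeled) in 100 mM sodium acetate pH 7 with compound, fibrillization induced by 20 uM heparin for 6 hr at 37 C. Thioflavin T (30 uM) added, fluorescence read after 1 hr (ex 450, em 510 nm).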
# % is set by controls: 0 for no effect and ±100 for the full control effect; potency is the fitted concentration of half-maximal effect; tags give direction and shape of the fitted curve.
# Chain of UniProt P10636 (P10636 whole entry, looked up): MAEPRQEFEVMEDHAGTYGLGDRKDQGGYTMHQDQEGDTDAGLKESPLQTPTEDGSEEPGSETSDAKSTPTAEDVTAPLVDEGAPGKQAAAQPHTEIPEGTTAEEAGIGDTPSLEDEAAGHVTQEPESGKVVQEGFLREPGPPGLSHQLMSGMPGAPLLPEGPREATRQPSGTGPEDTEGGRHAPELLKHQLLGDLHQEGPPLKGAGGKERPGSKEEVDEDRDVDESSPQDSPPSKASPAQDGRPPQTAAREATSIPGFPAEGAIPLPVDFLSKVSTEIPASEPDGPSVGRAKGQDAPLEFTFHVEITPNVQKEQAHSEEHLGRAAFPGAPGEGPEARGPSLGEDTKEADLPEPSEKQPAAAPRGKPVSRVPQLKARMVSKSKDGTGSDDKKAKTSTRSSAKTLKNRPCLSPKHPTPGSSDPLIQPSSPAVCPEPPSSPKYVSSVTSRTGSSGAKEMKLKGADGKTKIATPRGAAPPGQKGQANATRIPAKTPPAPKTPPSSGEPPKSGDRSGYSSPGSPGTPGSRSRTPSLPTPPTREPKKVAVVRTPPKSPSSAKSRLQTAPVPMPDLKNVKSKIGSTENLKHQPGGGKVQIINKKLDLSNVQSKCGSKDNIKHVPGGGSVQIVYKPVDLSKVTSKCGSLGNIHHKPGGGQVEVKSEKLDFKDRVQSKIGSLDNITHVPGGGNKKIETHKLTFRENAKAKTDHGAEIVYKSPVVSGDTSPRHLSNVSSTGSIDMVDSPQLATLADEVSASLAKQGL
Structure (SMILES),Potency,"activity, negative = inhibition"
CCOC(=O)C1(CCc2ccccc2)CCN(Cc2cccc3c2OCO3)CC1,"inconclusive: 44.7 µM [inhibitor, single point]",–
CN1CCC(OC(=O)Cc2ccccc2)CC1,–,inactive: -4.42%
CC/C(=N\NC(=O)c1ccccc1)c1c(O)n(Cc2ccccc2)c(=O)[nH]c1=O,"inconclusive: 7.08 µM [inhibitor, partial curve]",–
O=C1NC(=O)[C@]2(Cc3ccccc3N3CCN(c4ccccc4)CC32)C(=O)N1Cc1ccccc1 (some centres undefined),active: 31.6 µM,–
CCN1C(=O)N(CC)C(=O)C2(Cc3ccccc3N3CCN(c4ccccc4)CC32)C1=O (centres undefined),"inconclusive: 35.5 µM [inhibitor, partial curve]",–
O=c1[nH]c(O)c(N=Nc2ccc3c(c2)OCCO3)c(=O)[nH]1,active: 5.62 µM,–
C[C@]12CCC3C(CC[C@H]4C[C@H](O)CC[C@]34C)[C@@H]1CC[C@@H]2C(=O)CO (some centres undefined),"inconclusive: 12.6 µM [inhibitor, partial curve]",–
Cc1ccc(C(C)C)c(OCC(=O)N2CCN(Cc3nc4cc([N+](=O)[O-])ccc4n3C)CC2)c1,"inconclusive: 20 µM [inhibitor, single point]",–
COC(=O)C(O)(c1ccc(N=Cc2ccccc2O)c(C)c1)C(F)(F)F (centres undefined),–,inactive: -13.3%
CCN(CC)c1ccc(/C=C2\C(=O)NC(=S)N(C)C2=O)o1,active: 14.1 µM,–
CN1CCc2nc(SCc3ccccc3Br)c(C#N)cc2C1,"inconclusive: 15.8 µM [inhibitor, partial curve]",–
Cc1nc(-c2ccc(-c3ccc(C(=O)N4CCc5cc6c(cc54)C4(CCN(C)CC4)CO6)cc3)c(C)c2)no1,"inconclusive: 20 µM [inhibitor, partial curve]",–
CN(CC(=O)N[C@H](CO)Cc1ccccc1)C(=O)[C@H](CCS(C)=O)NC(=O)[C@@H](N)Cc1ccc(O)cc1 (some centres undefined),–,inactive: -1.99%
Cc1ccc(NC(=O)COC(=O)/C=C/c2ccco2)cc1S(=O)(=O)N(C)C,"inconclusive: 12.6 µM [inhibitor, partial curve]",–
Nc1ccc(C2(c3ccc(N)cc3)CCCCC2)cc1,–,inactive: 4.29%
CC1=NN(c2ccccc2)C(=O)C1/C=C1/C(=O)NC(=O)N(c2cc(C)cc(C)c2)C1=O (centres undefined),active: 11.2 µM,–
COc1ccc(-c2cc(=Nc3cccc(C(=O)O)c3)c3cc(C)ccc3o2)cc1,"inconclusive: 6.31 µM [inhibitor, full curve]",–
CCCc1cc(N2CCN(c3ccc(OC)cc3)CC2)n2cnnc2n1,"inconclusive: 17.8 µM [inhibitor, single point]",–
NC1C[C@H]1c1ccccc1 (some centres undefined),"inconclusive: 39.8 µM [inhibitor, single point]",–
Cc1nn(Cc2ccccc2)c(C)c1C(=O)OCC(=O)Nc1ccccc1SCC#N,–,inactive: -12%
Cc1cccc(N2C(=O)NC(=O)/C(=C/c3cc4c(cc3[N+](=O)[O-])OCO4)C2=O)c1,"inconclusive: 3.98 µM [inhibitor, partial curve]",–
Cc1noc(NS(=O)(=O)c2ccc(NC(=O)CCCOc3ccc(Cl)cc3Cl)cc2)c1C,"inconclusive: 39.8 µM [inhibitor, single point]",–

Structure (SMILES),Potency,"activity, negative = inhibition"
COP(=O)(Cc1ccc(C#N)o1)OC,–,inactive: -8.98%
CCOC(=O)C1CCN(/C=C2/C(=O)NC(=O)N(c3ccc(OCC)cc3)C2=O)CC1,active: 14.1 µM,–
CC(C)c1cc2c(c(O)c1O)[C@@]1(C(=O)O)CCCC(C)(C)[C@@H]1CC2,active: 14.1 µM,–
COc1cccc(CSc2nc(-c3ccccc3OC)nc3c2Cc2c(CO)cnc(C)c2O3)c1,"inconclusive: 20 µM [inhibitor, single point]",–
CCOC(=O)c1c(N)n(Cc2ccco2)c2nc3ccccc3nc12,"inconclusive: 28.2 µM [inhibitor, partial curve]",–
CCC(C)NC(=O)c1c(N)n(CCCOC)c2nc3ccccc3nc12 (centres undefined),"inconclusive: 15.8 µM [inhibitor, partial curve]",–
O=[N+]([O-])c1cc(F)c(N2CCCC2)cc1Br,"inconclusive: 14.1 µM [inhibitor, partial curve]",–
COc1ccc(C2=NCC(=O)N(CC(=O)NCc3ccco3)c3sc4c(c32)CCCC4)cc1,"inconclusive: 31.6 µM [inhibitor, single point]",–
CCOP(=O)(OCC)c1nc(-c2ccc(C)cc2)oc1NCc1ccccc1,"inconclusive: 28.2 µM [inhibitor, single point]",–
CC/C=C\C/C=C\C/C=C\C/C=C\C/C=C\CCCC(N)=O,–,inactive: -9.04%
CN1C(=O)NC(=O)[C@]2(Cc3ccccc3N3CCN(c4ccccc4)CC32)C1=O (some centres undefined),"inconclusive: 25.1 µM [inhibitor, partial curve]",–
O=C(CNC(=O)c1ccc(Br)cc1)NCC(=O)OCC(=O)c1ccc([N+](=O)[O-])cc1,active: 28.2 µM,–
CN1CCC[C@H]1c1cccnc1,"inconclusive: 22.4 µM [inhibitor, partial curve]",–
CN(C)c1ccc(N=Cc2c(O)n(CCC3=CCCCC3)c(=O)[nH]c2=O)cc1,"inconclusive: 8.91 µM [inhibitor, partial curve]",–
CN(C)C=C1C(=O)N(C2CCCCC2)C(=O)N(C2CCCCC2)C1=O,"inconclusive: 20 µM [inhibitor, partial curve]",–
COc1ccc2c(c1OC)C(=O)OC2C1c2cc3c(cc2CCN1C)OCO3 (centres undefined),inactive,–
Clc1ccc(COC(Cn2ccnc2)c2ccc(Cl)cc2Cl)cc1 (centres undefined),"inconclusive: 28.2 µM [inhibitor, partial curve] and inconclusive: 17.8 µM [inhibitor, partial curve]",–
CCCCCCCCCOc1ccc2[nH]cc(CCN)c2c1,"inconclusive: 22.4 µM [inhibitor, partial curve, poor fit] and inconclusive: 31.6 µM [inhibitor, partial curve] and inconclusive: 39.8 µM [inhibitor, single point]",–
O=c1[nH]c(=O)n(CC2CCCO2)c(O)c1/C=C1\C=Nc2ccccc21 (centres undefined),"inconclusive: 31.6 µM [inhibitor, partial curve] and inconclusive: 14.1 µM [inhibitor, partial curve]",–
FC(F)(F)c1ccc2c(c1)nnn2C1CCN(Cc2nnnn2Cc2ccccc2)CC1,"inconclusive: 31.6 µM [inhibitor, partial curve]",–
CCCCC/C=C\C/C=C\C/C=C\C/C=C\CCCC(N)=O,inactive,–
CCOC(=O)c1ccc(N=C(c2ccccc2)c2c(O)n(C)c(=O)n(C)c2=O)cc1,"inconclusive: 11.2 µM [inhibitor, partial curve, poor fit]",–

Structure (SMILES),Potency,"activity, negative = inhibition"
Cc1ccccc1-n1c(O)c(/C=N/NC(=O)c2ccccc2O)c(=O)[nH]c1=S,"inconclusive: 10 µM [inhibitor, partial curve]",–
CC(=O)Nc1ccc(C2CN(C)CC2C(=O)c2ccc(Cl)cc2)cc1 (centres undefined),–,inactive: -5.37%
CCNc1cc(N2CCNCC2)ccc1[N+](=O)[O-],"inconclusive: 25.1 µM [inhibitor, single point]",–
COc1ccc(C(=O)Nc2ccc3oc(-c4ccc(F)cc4Cl)nc3c2)cc1,"inconclusive: 2.51 µM [inhibitor, full curve, poor fit]",–
O=C(c1cc(-c2ccc(Cl)cc2)n(-c2ccc(Cl)cc2Cl)n1)N1CCOCC1,"inconclusive: 28.2 µM [inhibitor, partial curve]",–
CC(C)c1ccc(N=Cc2c(O)n(C3CC3)c(=S)[nH]c2=O)cc1,"inconclusive: 11.2 µM [inhibitor, partial curve, poor fit]",–
O=C(O)c1cc(O)c(O)c(O)c1,active: 1.26 µM,–
Cc1[nH]c2ccccc2c1CN(C)C,"inconclusive: 15.8 µM [inhibitor, partial curve]",–
Cc1ccc(Cn2cccc(C(=O)Nc3ccc(C)c(Cl)c3)c2=O)cc1,–,inactive: -9.36%
O=C1NC(=O)C(=Cc2ccsc2)C(=O)N1,"inconclusive: 3.16 µM [inhibitor, full curve, poor fit]",–
Cn1c(O)c(C(=Nc2ccccc2)SCc2ccc(Cl)cc2)c(=O)n(C)c1=O,"inconclusive: 17.8 µM [inhibitor, partial curve, poor fit]",–
CSc1nc(N)c(N=Nc2ccc([As](=O)(O)O)cc2)c(=O)[nH]1,active: 20 µM,–
CC1=CC(=O)NP(=O)(Oc2ccc3ccccc3c2)N1 (centres undefined),–,inactive: -4.05%
CCCCCn1c(NC(=O)c2ccco2)c(C(=O)OCC)c2nc3ccccc3nc21,"inconclusive: 25.1 µM [inhibitor, partial curve]",–
CC(=O)c1ccc(NC(=O)c2cc(CC(C)C)on2)cc1,"inconclusive: 8.91 µM [inhibitor, partial curve]",–
Cc1ccc(/C=C2/C(=O)NC(=O)N(CCc3ccc(F)cc3)C2=O)o1,"inconclusive: 14.1 µM [inhibitor, partial curve]",–
Nc1ccc2c(c1)Cc1cc([N+](=O)[O-])ccc1-2,active: 3.16 µM,–
O=C1NC(=O)N(c2ccc3c(c2)OCO3)C(=O)/C1=C/c1ccsc1,"inconclusive: 7.08 µM [inhibitor, partial curve]",–
CCCCCCCCCC(=O)O[C@H]1CC[C@H]2[C@@H]3CCC4=CC(=O)CC[C@@H]4[C@H]3CC[C@]12C,"inconclusive: 5.01 µM [inhibitor, full curve]",–
C=C(C)CN1CC[C@]23c4c5ccc(O)c4O[C@H]2c2[nH]c4ccccc4c2C[C@@]3(O)C1C5,"inconclusive: 39.8 µM [inhibitor, single point]",–
